According to the supplement of paper PMC8748497:
Some of the results follow.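 Rule for the calls: active = GRHL reporter fold change of at least 2 over DMSO at 10 µM; inactive = below 2-fold.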 Most values come without repeats; read them as rough.

test system: HEK293 GRHL-luciferase reporter; experiment: GRHL luciferase reporter activity, fold change over DMSO control; higher = stronger GRHL reporter activation; settings: 10 µM; 24 h
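Note: stable HEK293 line carrying repeated GRHL consensus sites upstream of a minimal promoter driving luciferase, luminescence read 24 h post-treatment, normalized to 0.5% DMSO vehicle wells.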

| Compound | GRHL luciferase reporter activity |
| --- | --- |
| CC(=O)O[C@]1(C(C)=O)CC[C@H]2[C@@H]3C[C@H](C)C4=CC(=O)CC[C@]4(C)[C@H]3CC[C@@]21C | inactive: 1.15 |
| CC(=O)Nc1ccccc1 | inactive: 1.03 |
| CCN(CC)CCc1nc(-c2ccccc2)no1 | inactive: 0.021 |
| CCN(CC)C(=O)c1cccnc1 | inactive: 0.991 |
| O=C1CCC[C@@H]2[C@H]3CCC[N+]4([O-])CCC[C@@H](CN12)[C@@H]34 (some centres undefined) | inactive: 1.05 |
| CN(C)CC/C=C1/c2ccccc2Sc2ccc(Cl)cc21 | inactive: 0.745 |
| CN(C)[C@@H]1C(=O)C(C(N)=O)=C(O)[C@@]2(O)C(=O)C3=C(O)c4c(O)ccc(Cl)c4[C@@H](O)[C@H]3C[C@@H]12 | inactive: 0.829 |
| CCN(CC)CCOc1ccc(C(=C(Cl)c2ccccc2)c2ccccc2)cc1 | inactive: 0.224 |
| COc1ccc([C@@H]2CC(=O)c3c(O)cc(O[C@@H]4O[C@H](CO[C@@H]5O[C@@H](C)[C@H](O)[C@@H](O)[C@H]5O)[C@@H](O)[C@H](O)[C@H]4O)cc3O2)cc1O | inactive: 1.1 |
| Nc1c(Br)cc(Br)cc1CN[C@H]1CC[C@H](O)CC1 | inactive: 1.1 |
| OC[C@H]1O[C@@](CO)(O[C@H]2O[C@H](CO)[C@@H](O)[C@H](O)[C@H]2O)[C@@H](O[C@H]2O[C@H](CO)[C@@H](O)[C@H](O)[C@H]2O)[C@@H]1O | inactive: 0.947 |
| OCCOCCN1CCN(C2=Nc3ccccc3Sc3ccccc32)CC1 | inactive: 1.07 |
| COc1ccc(C(C)=O)c(O)c1 | inactive: 1.02 |
| CN1C(C(=O)Nc2ccccn2)=C(O)c2ccccc2S1(=O)=O | inactive: 1.08 |
| Cc1c(Cl)cccc1Nc1ncccc1C(=O)O | inactive: 1.31 |
| CC(=O)OCC1=C(C(=O)O)N2C(=O)[C@@H](NC(=O)CSc3ccncc3)[C@H]2SC1 | inactive: 0.849 |
| Cc1ncc([N+](=O)[O-])n1CC(O)CCl (centres undefined) | inactive: 0.976 |
| C=C1c2cccc(O)c2C(O)=C2C(=O)[C@]3(O)C(O)=C(C(N)=O)C(=O)[C@@H](N(C)C)[C@@H]3[C@@H](O)[C@H]12 | inactive: 1.05 |
| CC[C@H]1OC(=O)C[C@@H](O)[C@H](C)[C@@H](O[C@@H]2O[C@H](C)[C@@H](O)[C@H](N(C)C)[C@H]2O)[C@@H](CCN2C[C@H](C)C[C@H](C)C2)C[C@@H](C)C(=O)/C=C/C(C)=C/[C@@H]1CO[C@@H]1O[C@H](C)[C@@H](O)[C@@H](OC)[C@H]1OC | inactive: 0.966 |
| COCCOC(=O)C1=C(C)NC(C)=C(C(=O)OC(C)C)C1c1cccc([N+](=O)[O-])c1 (centres undefined) | inactive: 1.65 |

| Compound | GRHL luciferase reporter activity |
| --- | --- |
| CCCOc1ccc2[nH]c(NC(=O)OC)nc2c1 | inactive: 0.531 |
| CC[C@H](C)[C@H](N)C1=N[C@H](C(=O)N[C@@H](CC(C)C)C(=O)N[C@H](CCC(=O)O)C(=O)N[C@H](C(=O)N[C@H]2CCCCNC(=O)[C@H](CC(N)=O)NC(=O)[C@@H](CC(=O)O)NC(=O)[C@H](Cc3cnc[nH]3)NC(=O)[C@@H](Cc3ccccc3)NC(=O)[C@H]([C@@H](C)CC)NC(=O)[C@@H](CCCN)NC2=O)[C@@H](C)CC)CS1 | inactive: 0.866 |
| COc1cc(C(=O)N2CCOCC2)cc(OC)c1OC | inactive: 0.891 |
| C=CC(C1=CC(=O)C(OC)=CC1=O)c1ccc(OC)cc1 (centres undefined) | active: 24.4 |
| CN1CCCN=C1/C=C/c1cccc(O)c1 | inactive: 1.18 |
| CCCCCCCCCCCCCCCCOc1nc2ccc(C)cc2c(=O)o1 | inactive: 0.909 |
| CC12CC3CC(C)(C1)CC(N)(C3)C2 | inactive: 1.09 |
| O=C(O)c1cccnc1Nc1cccc(C(F)(F)F)c1 | active: 2.22 |
| CN1CCN(c2c(F)cc3c(=O)c(C(=O)O)cn4c3c2OCN4C)CC1 | inactive: 0.918 |
| Cc1noc(NS(=O)(=O)c2ccc(N)cc2)c1C | inactive: 0.95 |
| Clc1ccc(CCC(Cn2ccnc2)Sc2c(Cl)cccc2Cl)cc1 (centres undefined) | inactive: 1.41 |
| C=C(C)[C@H]1COc2cc3oc(=O)ccc3cc2O1 | active: 2.58 |
| COC(=O)/C(C)=C\CC12OC(C)(C)C3CC(C=C4C(=O)c5c(c(CCC(C)(C)Cl)c6c(c5OC)C5CC(C)(CCC5=C(C)C)O6)OC431)C2=O (centres undefined) | inactive: 0.0148 |
| Cc1ccccc1C(OCCN(C)C)c1ccccc1 (centres undefined) | inactive: 0.824 |
| O=C(O)c1ccccc1Nc1ccccc1 | inactive: 1.13 |
| C=CCc1ccccc1OCC(O)CNC(C)C (centres undefined) | inactive: 1.02 |
| CCCCCCCCCCOc1cc2c(O)c(C(=O)OCC)cnc2cc1OCC | inactive: 0.991 |
| CO/N=C(\C(=O)N[C@@H]1C(=O)N2C(C(=O)O)=C(CSC(=O)c3ccco3)CS[C@H]12)c1csc(N)n1 | inactive: 0.99 |
| CCC1(c2ccccc2)C(=O)NCNC1=O | inactive: 0.936 |
